The source gives no read counts; variants with many changes may rest on few reads.
B1: LINE1-mini (parent)
chain: GGCAGAGCUCAACACAGCGUGGCAAAGUGGCUGUGGCUAGACUGCC

Variants of: B1
Experiment: self-cleavage, relative activity (ratio to wild type); higher = more cleavage; in vitro, sequencing; the parent is a self-cleaving ribozyme

Variant	self-cleavage
A14U U32C U38C	0.11
C8U A25U U32G	0.36
A6G C18U A24U	0.06
C3A A4U A6U A16C G21A G33U	0.13
G19U G22U A26G	0.6
A16C G29U G36C	0.05
A12U A25G A26C C46G	0.3
G29A G33C C46G	0.05
G2A C3A A6C A16U G17U C37G	0.04
G7U G21C G22A	0.04
G7C G22C C23U U32G	0.08
G1U C15A U34G C42U G44C	0.03
A6C G7C C13U G22A C42U C45U	0.06
C3A A24U G27C G29A G40C	0.1
A11C A14G C15U A16U U28G C31G	0
A12U G33U U43G C46G	0
G21U A26U U32A	0.06
G29U A39G G44U	0.05
G1C C37U U38A C46A	0
G1A G5A G21A G30U G36A G40U	1.07
C18U U20C A24G U28G G29A	0.38
G21A U34C C37A	0.03
G2U A14U U38G C42A U43A	0.02
C10U A14U G22U A25G G33U C45G	0.01

Variant	self-cleavage
G27U G29A G33A	0.06
A11G A16U U20G U34G U43C	0
G2A G5C C18A	0.03
G1U G7C A12C G29A C37U C42A	0.02
G1U A4C A11G G35A	0.07
C3G A11G C31G	0.02
A4C C8G C15U	0.01
C10A G19U G29C	0.04
A6G U28G C31G G33U U43A	0.38
C15A C23A G36U	0.04
G7A A16C G19U	0.1
U9C A14C C15G	0.01
A4U G36C U43A	0.01
G5A G19A U28C G35A	0.1
C10U G29A G33U U38C	0.03
G1C G7A G36A	0.15
A4G C8U G30A A39U	0.74
A4U U20G C23A A26G G30U A39U	0.02
C18A U28G C31A U34G	0.03
C10G G17U U28A G33U	0.01
G7A C13U C15A U20A G36A	0.03
G5C A25G A39G G40C	0.04
A12C C13U C42G	0.05
C3U U28G A39G U43G	0.01

Variant	self-cleavage
A11G G19A G33U C45G	0.04
G5U G21U G36A	0.1
G2U G7U A12U A14U U20G	0
G7A A11G G17C C31U	0.03
C10U A14G G30C	0.26
A14U C31A U32A A39C C45A	0
U9A U28C G29C C42A	0.07
C3G C23U U28A G40U A41U	0.06
C10G A11U C18G U28A	0.02
C3U A6U G7A C8G A14C	0.05
A25C G33A C37G	0.07
C13A C23A C31A U32C	0.05
A16C U34G G44A C45A	0.08
C8A G30A G33C A41G	0.26
G2A G7U C10A G30U U32A A39C G44A	0.03
G5U G7C A16G C23G U32G G36A	0.03
G5U G17A G21U G33A G40U	0.02
U20C G21C U28C	0.18
G19U G30U U34A	0.03
C10G A16G G30C	0.06
C13U G22C A26U G44A C45U	0.02
A11U G33C A41G C45U	0.03
A4C G22C A26U G40A G44U	0.11
G17A G27U G29U U34A	0.02

Variant	self-cleavage
A25C G27A G40U	0.13
G2C A12C C37U U38A	0.01
G1A A6U U28C	0.51
G1C C15A G17C	0.01
A12U A14G G17A G19U	0.02
C10U G19U G30C	1.12
G1U U9A U34G	0.01
G5C A12U A39C	0.04
U9A G35U C46U	0.15
A14U G17A G19A A41U	0.01
G27A U28C C46U	0.27
C3U C23U A24G G36C	0.37
G1A G5C C31U	0.09
C23U A24U G29U C31A C37G	0.02
C31A U32C U34G	0.04
G1C C8A G19U G22C G35C	0
C3U G7C C13U A14C G19U G29U G40U	0.04
G1U A4U A11G G35A	0
G1U G29C C42G	0.02
C3G A25U A26C U43A	0.21
G1A U9G C10U A16C C23U C31U C42A	0.02
C8U G30A C37A A39U	1.35
G1U G17U U28G C42U	0.02
A4G C8U C13G C18U	0.03

Variant	self-cleavage
U28G U34G C42G	0.02
G21U G27C C37A A41U	0.11
C18U C23A C37G	0.16
G7U U9A C37G A39U	0.01
G1A A12U U34G	0.18
G7U C15G C23U U43A	0.45
A14C U20C G30A C42U	0.13
U20G U32A G36A	0.02
G2C G7A G22U C45G	0.16
C8G A12U G19U	0.1
A14C U34C C46A	0.32
G2A C23U U32C G33U G35C	0.4
C3G U34A C37U	0.12
A11G G21A A24U A39G	0.02
G2A G21A A39C	0.63
A6C A24G C31A G44U	0.17
U28A G30U C46U	0.77
G1A A6U G7A	0.45
C3A G7A C45G	0.45
G5C C8A G22U C31G U34A A39U	0.12
G22U U28C A41C C42A	0.02
A14G G17U G21U C23G G44A	0.03
A24C G30A G35U	0.15
G21A C23G A26C C42U	0

Variant	self-cleavage
A6U U20G G40U	0.2
G2A C23G U38A	0.04
C18U U34C U38A	0.03
A6C G19A G21A	1.05
A6G C13G G44A	0.09
C18A G19C C46G	0.45
G21U A24G U38C	0.09
C8A A26U U34A	0.05
C3U G21U G22C	0.31
C3U C23U A26G C31U	0.03
C23A A25C G27A G30U	0.32
G1U G19C G30A	0.29
G7C A12C A26C	0
A11U C31A G35A	0.02
G5U C10A A16C A25U	0.04
A24C U32A C46A	0.06
C10A U20A C23G	0.03
C13U C23U G35U	0.08
C3A A26U G33C G44C	0.02
A4U A14G G35A C45G C46A	0.17
C8G C13A C15A G30U G36U U43C	0.15
G2C G22C C37A G44C	0.02
G1U U9C C37A	0.05
G17A G19U G22U C23A A25C	0.38

Variant	self-cleavage
G1C A4U G7C C10A A24U	0.02
A6G U9A G30C	0.04
A4C C10U C13A U20A	0.02
G7A U34C A39G	0.03
C15U G40U G44C	0.03
C10A C23U A25U C42G	0.02
C3G G5C G19C U32G	0.06
A4G C13U U43C	0.09
A4G C10U G36U A39U	0.03
C31A A39C C42A	0
C23A G40U C42G	0.07
A6C G21U A24U U28G U32C	0.02
G2C U28C G29C	0.03
G5U C13A G17A C31A U32G	0.03
G17C A25U C46U	0.04
C10A C15G A39C	0.02
U9A C10A C45G	0
A4C C37G A41U	0.05
A14C C15U U38A U43A	0.03
A16G G17C G19U G33A	0.01
U20G C23U G33C	0.06
A14G A24U U32C G36A U43G	0.04
C10U A16G G19C U32G A39U	0.03
